Laboratory results as given in patent publication EP4563146A1 (IRBM S.P.A., priority 2023, dated 2025).

The molecules below were run against ZIKV NS2B-G4SG4-NS3 serine protease (Zika virus, UniProt A0A024B7W1, R1467A/R1531G) (assay: ZIKV protease inhibition assay).
Type: biochemical

Structure (SMILES) | IC50 [nM]
CN(C)C[C@H]1CC[C@H]([n+]2cc([N-]C(=O)Nc3cc(NC(=O)Cc4c(F)cccc4Cl)cc(C(F)(F)F)c3)on2)CC1 [Example 198, ((3-(2-(2-Chloro-6-fluorophenyl)acetamido)-5-(trifluoromethyl)phenyl)carbamoyl)(3-((1R,4R)-4-((dimethylamino)methyl)cyclohexyl)-1,2,3-oxadiazol-3-ium-5-yl)amide] | < 100
CN(C)C[C@H]1CC[C@H]([n+]2cc([N-]C(=O)Nc3cc(NC(=O)Cc4c(F)cccc4F)cc(C(F)(F)F)c3)on2)CC1 [Example 199, ((3-(2-(2,6-Difluorophenyl)acetamido)-5-(trifluoromethyl)phenyl)carbamoyl)(3-((1R,4R)-4-((dimethylamino)methyl)cyclohexyl)-1,2,3-oxadiazol-3-ium-5-yl)amide] | < 100
CC(C(=O)Nc1cc(NC(=O)[N-]c2c[n+]([C@H]3CC[C@H](CN(C)C)CC3)no2)cc(C(F)(F)F)c1)c1ccccc1Cl (stereo partly drawn) [Example 205, ((3-(2-(2-Chlorophenyl)propanamido)-5-(trifluoromethyl)phenyl)carbamoyl)(3-((1R,4R)-4-((dimethylamino)methyl)cyclohexyl)-1,2,3-oxadiazol-3-ium-5-yl)amide] | 100 to 1000
Cc1ccccc1CC(=O)Nc1cc(NC(=O)[N-]c2c[n+]([C@H]3CC[C@H](C(C)(C)O)CC3)no2)cc(C(F)(F)F)c1 [Example 206, (3-((1R,4R)-4-(2-Hydroxypropan-2-yl)cyclohexyl)-1,2,3-oxadiazol-3-ium-5-yl)((3-(2-(o-tolyl)acetamido)-5-(trifluoromethyl)phenyl)-carbamoyl)amide] | < 100
CN(C)C[C@H]1CC[C@H]([n+]2cc([N-]C(=O)Nc3cc(NC(=O)C(C)(C)c4ccccc4)cc(C(F)(F)F)c3)on2)CC1 [Example 208, (3-((1R,4R)-4-((Dimethylamino)methyl)-cyclohexyl)-1,2,3-oxadiazol-3-ium-5-yl)((3-(2-methyl-2-phenylpropanamido)-5-(trifluoromethyl)phenyl)carbamoyl)amide] | 100 to 1000
Cc1cccc(CC(=O)Nc2cc(NC(=O)[N-]c3c[n+]([C@H]4CC[C@H](CN(C)C)CC4)no3)cc(C(F)(F)F)c2)c1C [Example 212, (3-((1R,4R)-4-((Dimethylamino)methyl)-cyclohexyl)-1,2,3-oxadiazol-3-ium-5-yl)((3-(2-(2,3-dimethylphenyl)acetamido)-5-(trifluoromethyl)phenyl)carbamoyl)amide] | 100 to 1000
COC(=O)[C@H]1CC[C@H]([n+]2cc([N-]C(=O)Nc3cc(NC(=O)Cc4ccccc4C)cc(C(F)(F)F)c3)on2)CC1 [Example 227, (3-((1R,4R)-4-(Methoxycarbonyl)cyclohexyl)-1,2,3-oxadiazol-3-ium-5-yl)((3-(2-(o-tolyl)-acetamido)-5-(trifluoromethyl)phenyl)carbamoyl) amide] | 100 to 1000
Cc1ccccc1CC(=O)Nc1cc(NC(=O)[N-]c2c[n+]([C@H]3CC[C@H](CO)CC3)no2)cc(C(F)(F)F)c1 [Example 228, (3-((1R,4R)-4-(Hydroxymethyl)cyclohexyl)-1,2,3-oxadiazol-3-ium-5-yl)((3-(2-(o-tolyl)acetamido)-5-(trifluoromethyl)phenyl)carbamoyl)amide] | 100 to 1000
Cc1ccccc1CC(=O)Nc1cc(NC(=O)[N-]c2c[n+]([C@H]3CC[C@H](C(=O)O)CC3)no2)cc(C(F)(F)F)c1 [Example 229, (3-((1R,4R)-4-Carboxycyclohexyl)-1,2,3-oxadiazol-3-ium-5-yl)((3-(2-(o-tolyl)acetamido)-5-(trifluoromethyl)phenyl)carbamoyl)amide] | 100 to 1000
Cc1cnn(C2COC2)c1-c1ccc(C[n+]2cc([N-]C(=O)Nc3ccnc(C(F)(F)F)c3)on2)cc1 [Example 239, (3-((4-(4-Methyl-2-(oxetan-3-yl)pyrazol-3-yl]phenyl)methyl)oxadiazol-3-ium-5-yl)-((2-(trifluoromethyl)pyridin-4-yl)carbamoyl)-azanide] | < 100
Cc1ncncc1[C@H]1CC[C@H](C[n+]2cc([N-]C(=O)Nc3ccnc(C(F)(F)F)c3)on2)CC1 [Example 241, (3-(((1R,4S)-4-(4-Methylpyrimidin-5-yl)cyclohexyl)methyl)-1,2,3-oxadiazol-3-ium-5-yl)((2-(trifluoromethyl)pyridin-4-yl)carbamoyl)-amide] | 100 to 1000
Cc1ccccc1CC(=O)Nc1cc(NC(=O)[N-]c2c[n+]([C@H]3CC[C@H](C(=O)N(C)C)CC3)no2)cc(C(F)(F)F)c1 [Example 248, (3-((1R,4R)-4-(Dimethylcarbamoyl)-cyclohexyl)-1,2,3-oxadiazol-3-ium-5-yl)((3-(2-(o-tolyl)acetamido)-5-(trifluoromethyl)phenyl)-carbamoyl)amide] | 100 to 1000
CNC(=O)[C@H]1CC[C@H]([n+]2cc([N-]C(=O)Nc3cc(NC(=O)Cc4ccccc4C)cc(C(F)(F)F)c3)on2)CC1 [Example 251, rac-(3-((1R,4R)-4-(Methylcarbamoyl)-cyclohexyl)-1,2,3-oxadiazol-3-ium-5-yl)((3-(2-(o-tolyl)acetamido)-5-(trifluoromethyl)phenyl)-carbamoyl)amide] | 100 to 1000
Cc1ccccc1CC(=O)Nc1cc(NC(=O)[N-]c2c[n+]([C@H]3CC[C@H](C(=O)N4CCCC4)CC3)no2)cc(C(F)(F)F)c1 [Example 254, (3-((1R,4R)-4-(Pyrrolidine-1-carbonyl)-cyclohexyl)-1,2,3-oxadiazol-3-ium-5-yl)((3-(2-(o-tolyl)acetamido)-5-(trifluoromethyl)phenyl)-carbamoyl)amide] | 100 to 1000
Cc1ccccc1CC(=O)Nc1cc(NC(=O)[N-]c2c[n+]([C@H]3CC[C@H](N(C)C)CC3)no2)cc(C(F)(F)F)c1 [Example 257, (3-((1R,4R)-4-(Dimethylamino)cyclohexyl)-1,2,3-oxadiazol-3-ium-5-yl)((3-(2-(o-tolyl)-acetamido)-5-(trifluoromethyl)phenyl)-carbamoyl)amide] | 100 to 1000
